Measured values: PMC7819943, “Rice protein-binding microarrays: a tool to detect cis-acting elements near promoter regions in rice”
The other results are listed elsewhere or left out.

These sequences were tested against T1, OsWOX13 (Oryza sativa, UniProt Q5QMM3 1-267) (assay: protein-binding microarray (RPBM); PBS, 2% BSA, 51.3 ng/ul salmon testes DNA, 50 uM zinc acetate, 200 nM TF, 25 C, 1 h; high values mean tight binding). Settings: protein: recombinant; tags: N-terminal polyhistidine and DsRed monomer fusion (pET32a); label: CyDye5-dUTP incorporated in the synthesized complementary strand; 3' TTTTT single-stranded linker to array surface; dsDNA, one strand shown.
T1 sequence: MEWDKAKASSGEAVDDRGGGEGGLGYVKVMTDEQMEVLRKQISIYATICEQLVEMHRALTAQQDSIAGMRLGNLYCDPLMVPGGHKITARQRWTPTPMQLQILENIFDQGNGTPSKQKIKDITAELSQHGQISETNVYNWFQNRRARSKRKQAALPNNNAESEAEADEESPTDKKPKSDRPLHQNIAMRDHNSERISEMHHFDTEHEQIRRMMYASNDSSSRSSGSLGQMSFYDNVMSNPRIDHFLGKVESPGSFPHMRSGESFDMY
In short: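 Using Ni–NTA, transcription factors fused N-terminally to polyhistidine and DsRed were purified after expression in E. coli BL21-CodonPlus. These were incubated at 200 nM with a blocked, double-stranded custom Agilent array for 1 h at 25 °C in a buffer containing 50 µM zinc acetate, and the array was washed. The binding signal is per-feature fluorescence intensity (arbitrary units) on an Axon 4000B scanner.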
With “AAAATTGTCACACAATCTATAATTAGTGTGATAGTATTATCGGAGTCACCTAGTGCAG” the binding signal was 3810 fluorescence intensity (a.u.). In the case of “CACTAGTACTCCACTACACATGATTGAGAGTTTTCTGAACCGGAGTCACCTAGTGCAG”, the binding signal was 6700 fluorescence intensity (a.u.). “TCCATATCAAATTGACATCCAATAAATCGAATTGGAACTTCGGAGTCACCTAGTGCAG” was tested, and the binding signal was 13800 fluorescence intensity (a.u.). With “ATTTAATTTGATTAACATGAATTTAATAATTTATTAACACCGGAGTCACCTAGTGCAG” the binding signal was 45900 fluorescence intensity (a.u.). “GGTAAATTTGGATAAAACAAAGATGCCCATCTTGAGCCGGCGGAGTCACCTAGTGCAG” was tested, and the binding signal was 7560 fluorescence intensity (a.u.). In the case of “GTGATGATTGGGCAGTGGAGTGGGGCAGGTGTGGGCGGACCGGAGTCACCTAGTGCAG”, the binding signal was 44700 fluorescence intensity (a.u.). In the case of “GGAAACGTATAATTAGTTCCTTTTCTTTTGTAATCAAATTCGGAGTCACCTAGTGCAG”, the binding signal was 3320 fluorescence intensity (a.u.). For “TCGTTGACATTAAAGATTAGCAAAAGCTAAGCTACAAACTCGGAGTCACCTAGTGCAG”, the binding signal was 6730 fluorescence intensity (a.u.). With “TCTGAGATTTATTGATTAGATTATAACGTAATCGTTGTTACGGAGTCACCTAGTGCAG” the binding signal was 29300 fluorescence intensity (a.u.). In the case of “AATATATTCAATGTTAAATTTAACAAAACTATTTGTGCTACGGAGTCACCTAGTGCAG”, the binding signal was 3660 fluorescence intensity (a.u.). In the case of “ATATAATTAATTAAAATATTAATTATTATTTGTAAAATGGCGGAGTCACCTAGTGCAG”, the binding signal was 65500 fluorescence intensity (a.u.). With “AGGTGATCATGCAAGGTAGTCAACAGTGTACTGCTAGTTACGGAGTCACCTAGTGCAG” the binding signal was 53800 fluorescence intensity (a.u.). For “TTTACAAAATTATAATGACATGGTTCCAAATTACCCTTAACGGAGTCACCTAGTGCAG”, the binding signal was 6850 fluorescence intensity (a.u.). In the case of “TATACCTAATTAACTATAAAACACAACAAACAAGGCATATCGGAGTCACCTAGTGCAG”, the binding signal was 10200 fluorescence intensity (a.u.). In the case of “CCCGACCTGGATTGACTACTTTGCCTCCAATTAACCCATTCGGAGTCACCTAGTGCAG”, the binding signal was 13100 fluorescence intensity (a.u.). In the case of “GGTAATTATTATTTTAGCGATGAGTGATATATATAGGGATCGGAGTCACCTAGTGCAG”, the binding signal was 25800 fluorescence intensity (a.u.). “GCGTAATAGAAAGAGAGATCTCCCGTCTCGTCCGTCGTCTCGGAGTCACCTAGTGCAG” was tested, and the binding signal was 5560 fluorescence intensity (a.u.). For “CCAACAAATTTTGTGTGACTACAACCTGCCTACAACCTGTCGGAGTCACCTAGTGCAG”, the binding signal was 5370 fluorescence intensity (a.u.). In the case of “GTCGGGTCCTTTGAATGATTACAAATGGTATCAGAGCGCGCGGAGTCACCTAGTGCAG”, the binding signal was 3200 fluorescence intensity (a.u.). “TATAAATTTGCTTTGCCATCGCGTCGTCGGGATCGTGTACCGGAGTCACCTAGTGCAG” was tested, and the binding signal was 3960 fluorescence intensity (a.u.). For “ATTATTAGTAGATTAATTAATAAACCTCACTCAATCTGGCCGGAGTCACCTAGTGCAG”, the binding signal was 15200 fluorescence intensity (a.u.). In the case of “TCAATCTATAATTTAAATTGTCATAAACCGTATCATCTAACGGAGTCACCTAGTGCAG”, the binding signal was 16200 fluorescence intensity (a.u.). “GCTGATATGACAGAATACACACCACCAGCTAAGCGGCACACGGAGTCACCTAGTGCAG” was tested, and the binding signal was 16400 fluorescence intensity (a.u.). With “ACTATTTTCAGTTTAATTTATCCTTTTCGTTGCAACTTGTCGGAGTCACCTAGTGCAG” the binding signal was 3550 fluorescence intensity (a.u.). In the case of “CAAATTAACTGAAGCGTGCAAAGTTTGGATCCGGCCGCGACGGAGTCACCTAGTGCAG”, the binding signal was 12700 fluorescence intensity (a.u.). For “GGCGCTTATCACGGCATTGATTAGCTAATCATCACTCCATCGGAGTCACCTAGTGCAG”, the binding signal was 35900 fluorescence intensity (a.u.). With “AGTGCTAACTTAATCAATTCCCTTAAGTTTCCTATTGAAGCGGAGTCACCTAGTGCAG” the binding signal was 5290 fluorescence intensity (a.u.). In the case of “GAAAATTTCTTCCCCAATTAAGCCGCGCAAATTATACCGACGGAGTCACCTAGTGCAG”, the binding signal was 10600 fluorescence intensity (a.u.). “CTTTGATTACATCAAGCCACTGAATTATCAGTTATAATCTCGGAGTCACCTAGTGCAG” was tested, and the binding signal was 23100 fluorescence intensity (a.u.). In the case of “GTGGATTGGACAATTTGGACAAGATAACCCTTCTCTCTCTCGGAGTCACCTAGTGCAG”, the binding signal was 25700 fluorescence intensity (a.u.). With “AATTTCTTGTTCAATCATTTCATATATATATACATGTAGGCGGAGTCACCTAGTGCAG” the binding signal was 6120 fluorescence intensity (a.u.). “ATATTAATTACATATGTAAGTGGCGTGTAAGTAGAATGTACGGAGTCACCTAGTGCAG” was tested, and the binding signal was 13800 fluorescence intensity (a.u.). For “GACACTAATTTAGGGTATTAAACGTAGACTACTTAGAACACGGAGTCACCTAGTGCAG”, the binding signal was 10800 fluorescence intensity (a.u.). In the case of “ATGAATAATTGAGGAAAACAAAGCGACCATGCGATGTAATCGGAGTCACCTAGTGCAG”, the binding signal was 23200 fluorescence intensity (a.u.). With “CACCCCTTCTAATTATTTGATATTAAGTTATTTCCTAGTACGGAGTCACCTAGTGCAG” the binding signal was 4390 fluorescence intensity (a.u.). “ATGATGAAATCATTGAAAACGCGGAGGCAAGAGGACGTGCCGGAGTCACCTAGTGCAG” was tested, and the binding signal was 4180 fluorescence intensity (a.u.). For “GTTTAAATGTGATGATTGTTAGTGGATGATGATGTGGCATCGGAGTCACCTAGTGCAG”, the binding signal was 26100 fluorescence intensity (a.u.). With “AGGCAAAATTTATCATCCTATCAGATAGCTCTCAGGCACCCGGAGTCACCTAGTGCAG” the binding signal was 4200 fluorescence intensity (a.u.). For “TATGTTAAATTTACTCAAATTTATAGAAAATTTAGCAATACGGAGTCACCTAGTGCAG”, the binding signal was 12000 fluorescence intensity (a.u.). In the case of “GATAGATAGATAGATAGATAGATAGATTTGTTGGCTGTGTCGGAGTCACCTAGTGCAG”, the binding signal was 63500 fluorescence intensity (a.u.). “CCAAACTGAACAGAAAACAGAATCCGTACATCCCAGCTCACGGAGTCACCTAGTGCAG” was tested, and the binding signal was 6880 fluorescence intensity (a.u.). With “ATCTGATGGAATCAAGAAGGCCAACGTTGGTGTGGGCCGGCGGAGTCACCTAGTGCAG” the binding signal was 5560 fluorescence intensity (a.u.).
